Laboratory results taken from PubChem BioAssay (NCI).
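Where inhibition never reached the appropriate level, the endpoint shown equals the highest concentration tested. Otherwise, values were interpolated linearly from a five-concentration, 48-hour dose response in 96-well plates. The concentration for 50% growth inhibition is given as GI50. TGI: concentration producing complete growth inhibition.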 Peptide text beside a SMILES is read from it.

What follows are compounds tested on NCI-H322M lung (assay: DTP human tumour cell line panel, 48 h).

Q: How did the TGI turn out when `O=C(/C=C/c1ccccc1)c1cc(Br)ccc1O` was run?
A: 35.6 µM

Q: `CCOP(=O)(OCC)C1CC(O)C(=O)N1` (stereo unspecified) was tested. Which TGI did it give?
A: > 100 µM

Q: With `CC(=O)N1C(c2[nH]c3ccccc3c2-c2ccccc2)CCN1c1ccccc1` (stereo unspecified) as the compound, how does the TGI read?
A: > 10 µM

Q: Which TGI does the source give for `COc1ccc(OCc2nc3cc(C(F)(F)F)ccc3nc2-c2ccccc2)cc1` here?
A: > 100 µM

Q: `NCCOCCOCCNc1nc(Cc2ccccc2)nc(NCCCN2CCCC2=O)n1` was tested. Which GI50 did it give?
A: > 100 µM

Q: What about the TGI of the same compound?
A: > 100 µM

Q: How did the TGI turn out when `C[C@]12CC[C@@H]3c4ccc(OP(=O)(O)O)cc4CC[C@H]3[C@@H]1CCC2=O` was run?
A: > 100 µM

Q: For `CCOC(=O)c1c(N2CCCC2)nsc1Nc1ccc(F)cc1`, which TGI is on record?
A: > 100 µM

Q: How did the TGI turn out when `O=C(N/N=C(/c1ccccc1)C(F)(F)F)c1ccncc1` was run?
A: > 100 µM

Q: With `C=CCOc1cccc(/C=C2\SC(=Nc3ccc(O)cc3)NC2=O)c1` as the compound, how does the GI50 read?
A: 4.64 µM

Q: What about the TGI of the same compound?
A: 46.6 µM

Q: Which TGI does the source give for `COC(=O)C(CC12CC3CC(CC(C3)C1)C2)NC(=O)C(N)CC(=O)O` (stereo unspecified) here?
A: > 100 µM

Q: Which TGI does the source give for `CC1=C(Oc2ccccc2)C(CCC(=O)O)c2c(O)cc(Cl)c(O)c21` (stereo unspecified) here?
A: > 100 µM

Q: How did the TGI turn out when `Cc1nc2cccc(F)c2c(=O)n1C1CCCCNC1=O` (stereo unspecified) was run?
A: > 10 µM

Q: With `[N-]=[N+]=Nc1c(C=O)c(=O)n2c3c(cccc13)CCC2` as the compound, how does the TGI read?
A: 31.5 µM

Q: With `COc1cc2c(c(OC)c1)C1c3ccccc3NC(=O)N1CC2` (stereo unspecified) as the compound, how does the GI50 read?
A: 7.13 µM

Q: What about the TGI of the same compound?
A: > 100 µM

Q: Which TGI does the source give for `CCCCCC(=O)N[C@H](C(=O)N[C@H](C(=O)N(C)[C@H](C(=O)N1CCC[C@H]1C(=O)N1CCC[C@H]1C(=O)O[C@H](C(=O)N1C(=O)C=C(OC)[C@@H]1Cc1ccccc1)C(C)C)C(C)C)C(C)C)C(C)C` (HELM PEPTIDE1{[CCCCCC(=O)[*:2]].V.V.[meV].P.P.[COC1=CC(=O)N(C(=O)[C@@H](O[*:1])C(C)C)[C@H]1Cc1ccccc1]}$$$$V2.0) here?
A: > 100 µM

Q: For `C=CC/C=C/Cc1csc(C(C)(C)C(O)C/C=C/C(=C)CCNC(=O)OC)n1` (stereo unspecified), which TGI is on record?
A: > 100 µM

Q: `Cn1cccc1-c1cc(-c2cccs2)nc(N)c1C#N` was tested. Which GI50 did it give?
A: > 100 µM

Q: What about the TGI of the same compound?
A: > 100 µM

Q: `O=C(/C=C/c1ccccc1)/C=N/N1C(=S)N(c2ccccc2)C(=Nc2ccccc2)C1=Nc1ccccc1` was tested. Which TGI did it give?
A: > 100 µM

Q: `O=c1/c(=C/c2ccccc2F)sc2nc3ccccc3n12` was tested. Which TGI did it give?
A: > 100 µM

Q: For `O=C1c2c(ccc3c2CCCC3)CC12Cc1ccc3c(c1C2=O)CCCC3`, which TGI is on record?
A: > 100 µM

Q: With `COC(=O)C1=CC2CCCC1(O)C(C(C)=O)C2` (stereo unspecified) as the compound, how does the TGI read?
A: > 100 µM

Q: Which GI50 does the source give for `COc1ccc(/C(=C2/O[C@@H]([C@H]3COC(C)(C)O3)[C@H]3OC(C)(C)O[C@@H]23)c2cc(OC)c(OC)c(OC)c2)cc1O` here?
A: 9.6 µM

Q: And the TGI?
A: > 100 µM

Q: With `CN(C)C(=O)OC(Cn1cncn1)c1ccc(Cl)cc1Cl` (stereo unspecified) as the compound, how does the TGI read?
A: > 100 µM

Q: For `NC(=O)NNc1nc2ccccc2c(=O)n1NC(=O)C(=O)Nc1ccc(Cl)cc1Cl`, which TGI is on record?
A: > 100 µM

Q: With `COc1cc(C2CC(c3ccc4c(c3)OCO4)=NN2C=O)cc(OC)c1OC` (stereo unspecified) as the compound, how does the GI50 read?
A: 4.86 µM

Q: And the TGI?
A: > 100 µM

Q: With `CCOC(=O)N(Cc1cccs1)c1cc(OC)c(OC)c(OC)c1` as the compound, how does the TGI read?
A: > 100 µM

Q: `COc1ccc(C2=Nc3ccccc3NC(=O)C2)cc1` was tested. Which TGI did it give?
A: > 100 µM

Q: How did the TGI turn out when `CCOC(=O)c1c2c(n3ccccc13)C(=O)c1ccccc1C2=O` was run?
A: 7.22 µM

Q: With `CC(=O)NC(CS/N=N/c1nc[nH]c1C(N)=O)C(=O)O` (stereo unspecified) as the compound, how does the TGI read?
A: > 100 µM

Q: How did the TGI turn out when `CCN(CC)CSc1nc2ccccc2s1` was run?
A: > 100 µM

Q: How did the TGI turn out when `C/C(=N\NS(=O)(=O)c1ccccc1)c1ccc(Cl)c(Cl)c1` was run?
A: > 100 µM

Q: With `CC(=O)OCC1OC(OC2C(CSC3OC(COC(C)=O)C(OC(C)=O)C(OC(C)=O)C3OC(C)=O)OC(OC(C)=O)C(OC(C)=O)C2OC(C)=O)C(OC(C)=O)C(OC(C)=O)C1OC(C)=O` (stereo unspecified) as the compound, how does the TGI read?
A: > 100 µM

Q: How did the TGI turn out when `O=C(N/C(=C\c1ccc2c(c1)OCO2)c1nc2ccccc2[nH]1)c1ccccc1` was run?
A: > 100 µM

Q: `O=C(C1OC1c1ccc(O)cc1)C12CC3CC(CC(C3)C1)C2` (stereo unspecified) was tested. Which TGI did it give?
A: > 100 µM

Q: How did the TGI turn out when `N#CC12C(=O)N3C(=NC(c4ccccc4)NC3c3ccccc3)C1(C#N)C(c1ccccc1)NC1=C2CCC1` (stereo unspecified) was run?
A: > 100 µM

Q: For `COC(=O)c1ccccc1CC1Cc2ccc3c(c2C1=O)CCC3` (stereo unspecified), which TGI is on record?
A: > 100 µM

Q: What does the source list for `COc1ccc(-c2n/c(=C\c3c(O)[nH]c4ccc(OC)cc34)cc3c2=Nc2ccccc2-3)cc1`?
A: GI50: 4.11 µM; TGI: > 100 µM

Q: How did the TGI turn out when `CCOc1ccc(NC(=O)C(=O)CC(=O)C2=C(C)Nc3ccccc3S2)cc1` was run?
A: > 50 µM

Q: How did the TGI turn out when `O=S(=O)(O)c1ccc2cccc(N=Nc3c(O)ccc4ccccc34)c2c1` was run?
A: > 100 µM

Q: Which TGI does the source give for `CCCCCCCCCCCC(=O)OCC1OC(n2cc(F)c(=O)[nH]c2=O)C(NC(=O)OCc2ccccc2)C(OC(=O)CCCCCCCCCCC)C1O` (stereo unspecified) here?
A: > 100 µM

Q: With `CC12CCC(CC1=O)C2(C)CCC(N)=O` (stereo unspecified) as the compound, how does the TGI read?
A: > 100 µM

Q: With `NC(=O)N=C(N(Cc1ccccc1)Cc1ccccc1)N(Cc1ccccc1)Cc1ccccc1` as the compound, how does the TGI read?
A: > 100 µM

Q: For `Cc1c(/C=N/NC(=O)c2cc(Br)cc(Br)c2O)c(=O)n(-c2ccccc2)n1C`, which TGI is on record?
A: > 100 µM

Q: Which GI50 does the source give for `N#Cc1c(N2CCCC2)[nH]c(=O)c(C(c2c(Cl)cccc2Cl)c2c(O)c(C#N)c(N3CCCC3)[nH]c2=O)c1O` here?
A: 26.3 µM

Q: And the TGI?
A: 44.6 µM

Q: How did the TGI turn out when `C[n+]1c2ccccc2c(C(=O)Nc2ccc(S(=O)(=O)Nc3ccnn3-c3ccccc3)cc2)c2ccccc21` was run?
A: > 100 µM

Q: Which TGI does the source give for `CC#CC#C/C=C1/O[C@]2(CCC(OC(C)=O)CO2)[C@@H]2O[C@H]12` (stereo partly specified) here?
A: > 100 µM

Q: `COc1cccc2c1c(C(=O)C(=O)Nc1cc(C)no1)cn2Cc1ccc(F)cc1` was tested. Which GI50 did it give?
A: 27.2 µM

Q: What about the TGI of the same compound?
A: > 100 µM

Q: `CCOC(=O)N/N=C(/OCC)c1ccccc1` was tested. Which TGI did it give?
A: > 100 µM

Q: `COc1ccc2nc(-n3c(/C=C/c4ccccc4O)nc4ccccc4c3=O)sc2c1` was tested. Which TGI did it give?
A: > 100 µM

Q: `CC1=C(C(=O)O)N2C(=O)[C@@H](NC(=O)C(c3ccc(O)cc3)N3CSC(=S)N(C(C)C)C3)C2SC1` (stereo partly specified) was tested. Which TGI did it give?
A: > 100 µM

Q: For `CCOC(=O)C1=[N+]([O-])OC2=C(O)CCCC21` (stereo unspecified), which TGI is on record?
A: > 100 µM

Q: `O=[N+]([O-])C(C(Cl)=C(Cl)Cl)=C(N(Cc1ccccc1)Cc1ccccc1)N(Cc1ccccc1)Cc1ccccc1` was tested. Which TGI did it give?
A: > 100 µM
